# Where “and” joins values, the source holds several entries; their conditions need not be identical. Equal values may be shown once. This list was built around the results that the source calls inconclusive (neither active nor inactive); the mix of calls is not that of the screen. For part of these data: Where the call is inconclusive, the potency comes from a doubtful curve fit. Some structures have more than one record in an assay (separate samples or runs), and their calls can disagree. Calls of active or inactive are those of the source. Unless noted, calls come from the whole dose curve; as a rule, active = well fitted curve in the direction sought with a large enough effect in the repeat runs; inconclusive = weak or mixed curves; inactive = no such curve, though single readings can be large; an effect the other way counts as inactive or inconclusive.
# Tests used:
# [1] = biological target: Luciferin 4-monooxygenase (Photinus pyralis) (UniProt P08659); assay: qHTS assay to identify small molecule inhibitors of firefly luciferase (AID 1224835); note: nearly all actives have a fitted effect of over 25% in size; note: potency is the fitted concentration of half-maximal effect; for activity change, negative = inhibition: % is set by controls: 0 for no effect and ±100 for the full control effect
# Procedure, shortened: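 Quantitative HTS format; KM concentrations of both substrates. Purified P. pyralis FLuc activity quantified from luminescence images.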
# [2] = qHTS assay to identify small molecule agonists of the androgen receptor (AR) signaling pathway in the presence of an antagonist - cell viability counter screen (AID 1259379); note: nearly all actives have a fitted effect of over 25% in size; note: potency is the fitted concentration of half-maximal effect;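 for activity change, negative = cytotoxicity: MDA-kb2 human breast cancer cells carrying an MMTV luciferase reporter; % is set by controls: 0 for no effect and ±100 for the full control effect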
# Procedure, shortened: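 MDA-kb2 cells (MMTV-luciferase, AR/GR), 3,000/well, 5 h attachment, then 3.0 µM nilutamide (final) and compounds at 15 concentrations. Viability by CellTiter-Fluor fluorescence after 16 h at 37 °C, 0% CO2, in the reporter wells.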
# [3] = qHTS RealTime-Glo MT Cell Viability Assay in HEK293 cells - 8 hour (AID 1224887); note: nearly all actives have a fitted effect of over 50% in size; note: potency is the fitted concentration of half-maximal effect; for activity change, negative = cytotoxicity: top concentration of the series differs between compounds; % is set by controls: 0 for no effect and ±100 for the full control effect
# Procedure, shortened: (§1)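 600 cells/well were plated with the nonlytic NanoLuc/prosubstrate reagent, pre-incubated 5 h, then given 23 nL of compound in DMSO. Incubation at 37 C for 40 h, with luminescence from viable-cell-reduced substrate read repeatedly from 0 h.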
# [4] = biological target: Progesterone receptor (Homo sapiens) (UniProt P06401); assay: qHTS assay to identify small molecule agonists of the progesterone receptor (PR) signaling pathway (AID 1346784; calls by dose curve; note: potency is the fitted concentration of half-maximal effect; nearly all actives have a fitted effect of over 30% in size); settings: PR-UAS-bla HEK293T, beta-lactamase FRET ratio, 16 h; activation: at 92.4 µM (top of the series) unless noted
# Procedure, shortened: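 Using charcoal-stripped serum (2%) to limit endogenous steroids, PR-UAS-bla HEK 293T cells received compounds for 16 hr at 37C after 6 hr plating; beta-lactamase FRET fluorescence was recorded following 2 hr substrate loading at room temperature.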
# [5] = biological target: Voltage-gated inwardly rectifying potassium channel KCNH2 (Homo sapiens) (UniProt Q12809); assay: Human Ether-a-go-go-Related Gene (hERG) channel small molecule antagonists: fluorescence cell-based qHTS assay (AID 1671200); note: nearly all actives have a fitted effect of over 50% in size; note: potency is the fitted concentration of half-maximal effect
# Procedure, shortened: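 Measured: Tl+ flux via fluorescence (480/540 nm) in hERG-expressing U2OS cells after 1 h dye loading at room temperature.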
# [6] = A CellTox Green Cytotoxicity Assay to monitor cytotoxicity in HepG2 cells - 16 hour (AID 1224876); note: % is set by controls: 0 for no effect and ±100 for the full control effect; nearly all actives have a fitted effect of over 45% in size
# Procedure, shortened: (§2)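 HepG2 cells, 600/well, preincubated 5 h with CellTox Green dye, then exposed to Tox21 compounds in DMSO at 37 C for up to 40 h. Dead-cell DNA fluorescence read at the indicated time point.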
# [7] = qHTS assay to identify small molecule antagonists of the thyroid receptor (TR) signaling pathway (AID 743065); note: nearly all actives have a fitted effect of over 55% in size; note: potency is the fitted concentration of half-maximal effect
# Procedure, shortened: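 GH3.TRE-Luc rat pituitary cells carrying two TR response elements driving luciferase were plated for 4 h, given compound plus 1 nM T3 (final), and incubated 23.5 h at 37 C. ONE-Glo luminescence measured reporter inhibition; CellTiter-Fluor fluorescence tracked cytotoxicity.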
# [8] = biological target: Peroxisome proliferator-activated receptor delta (Homo sapiens) (UniProt Q03181); assay: qHTS assay to identify small molecule agonists of the peroxisome proliferator-activated receptor delta (PPARd) signaling pathway (AID 743212; calls by dose curve; note: potency is the fitted concentration of half-maximal effect); settings: HEK293H PPARd-UAS-bla, beta-lactamase FRET ratio, 17 h; activation: at 62.6 µM (top of the series) unless noted
# Procedure, shortened: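 GeneBLAzer PPARd UAS-bla HEK293H cells (beta-lactamase reporter under UAS control), plated and rested 5 h at 37 C, then exposed to compounds in DMSO at 37 C; LiveBLAzer B/G FRET substrate added, 2 h room temperature, fluorescence read.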
# [9] = biological target: Nuclear receptor subfamily 1 group I member 3 (Homo sapiens) (UniProt Q14994); assay: qHTS assay to identify small molecule antagonists of the constitutive androstane receptor (CAR) signaling pathway (AID 1224838); note: potency is the fitted concentration of half-maximal effect; nearly all actives have a fitted effect of over 40% in size
# Procedure, shortened: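 HepG2 cells stably carrying hCAR and a CYP2B6-2.2kb luciferase reporter, seeded 4 hrs before compound (15 concentrations). Stimulated with 50 nM CITCO for 24 hr at 37 C. ONE-Glo luminescence read after 30 min at room temperature.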
# [10] = qHTS assay to identify small molecule agonists of the TGF-beta/Smad signaling pathway (AID 1346859; active = well fitted activation curve with a large enough effect in the signal ratio in the repeat runs, not every such curve was filed as active; inconclusive = weak or mixed curves; the % refers to the signal ratio; note: potency is the fitted concentration of half-maximal effect)
# Procedure, shortened: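 Stable Smad binding element-beta-lactamase HEK 293T cells; 5 hr compound exposure at 37 C under 5% CO2; 2 hr room-temperature substrate step; fluorescence excited at 405 nm, collected at 460 nm and 530 nm.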
# [11] = biological target: Acetylcholinesterase (Homo sapiens) (UniProt P22303); assay: Acetylcholinesterase (AChE) small molecule antagonists: colormetric cell-based qHTS assay (AID 1347395; calls by dose curve; note: nearly all actives have a fitted effect of over 30% in size; note: potency is the fitted concentration of half-maximal effect)
# Procedure, shortened: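 Neuroblastoma line SH-SY5Y supplied the enzyme; cells were preincubated with compound for 30 min at 37 C and 5% CO2. Acetylthiocholine with DTNB was then added for 90 min at 37 C, and thiocholine was measured by colour.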
# [12] = biological target: Androgen receptor (Homo sapiens) (UniProt P10275); assay: qHTS assay to identify small molecule antagonists of the androgen receptor (AR) signaling pathway (AID 743035; active = well fitted inhibition curve with a large enough effect in the signal ratio in the repeat runs, not every such curve was filed as active; inconclusive = weak or mixed curves, or effect the other way; inactive = no such curve, though single readings can be large or run the other way; the % refers to the signal ratio; note: % is set by controls: 0 for no effect and ±100 for the full control effect); settings: HEK293 AR-UAS-bla, R1881-stimulated, beta-lactamase FRET, 16 h; activity change, negative = inhibition: at 58.5 µM (top of the series) unless noted
# Procedure, shortened: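 HEK293 cells stably carrying UAS-beta-lactamase reporter, 2,000/well, given compounds plus R1881 agonist and incubated 16 h at 37C. LiveBLAzer B/G FRET substrate then added for 2 h at room temperature before fluorescence reading.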
# [13] = qHTS assay to identify small molecule agonists of the estrogen receptor alpha (ER-alpha) signaling pathway in the presence of an antagonist - cell viability counter screen (AID 1259386);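 note: cells exposed to compounds for 22 h at 37 °C before the viability read; nearly all actives have a fitted effect of over 30% in size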; note: potency is the fitted concentration of half-maximal effect
# Procedure, shortened: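 Cell viability in VM7Luc4E2 cells (endogenous full-length ER-alpha) measured by CellTiter-Fluor fluorescence in the same wells as the luciferase screen. Cells pre-cultured 5 days in charcoal-stripped serum, then treated 22 h with compounds at 15 concentrations plus 10.0nM ICI-182,780.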
# [14] = qHTS assay to identify small molecule agonists of the vitamin D receptor (VDR) signaling pathway - cell viability counter screen (AID 743224); note: nearly all actives have a fitted effect of over 50% in size; note: potency is the fitted concentration of half-maximal effect
# Procedure, shortened: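 VDR-bla cells, 4 h after plating, exposed to compounds for 16 h at 37C; viability then read in the same wells as CellTiter-Glo luminescence after 30 min at room temperature, following the bla FRET read.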
# [15] = A CellTox Green Cytotoxicity Assay to monitor cytotoxicity in HepG2 cells - 24 hour (AID 1224878); note: potency is the fitted concentration of half-maximal effect; nearly all actives have a fitted effect of over 45% in size
# Procedure, shortened: as §2
# [16] = qHTS RealTime-Glo MT Cell Viability Assay in HEK293 cells - 40 hour (AID 1224874); settings: RealTime-Glo luminescence; max response: stronger effect = lower value; note: nearly all actives have a fitted effect of over 50% in size; note: potency is the fitted concentration of half-maximal effect
# Procedure, shortened: as §1
# [17] = biological target: Estrogen receptor (Homo sapiens) (UniProt P03372); assay: qHTS assay to identify small molecule agonists of the estrogen receptor alpha (ER-alpha) signaling pathway (AID 743075; calls by dose curve;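 note: HEK293 GripTite cells with ER-alpha and UAS-driven beta-lactamase reporter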; note: potency is the fitted concentration of half-maximal effect); settings: HEK293 ER-alpha-UAS-bla, beta-lactamase FRET ratio, 18 h; activation: at 70.1 µM (top of the series) unless noted
# [18] = qHTS assay to identify aromatase inhibitors - cell viability counter screen (AID 743084); settings: MCF-7 aro ERE viability, CellTiter-Fluor, 24 h; activity change, negative = cytotoxicity: at 70.3 µM (top of the series);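 note: cells stimulated with testosterone during compound exposure; nearly all actives have a fitted effect of over 55% in size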; note: potency is the fitted concentration of half-maximal effect
# [19] = qHTS assay to identify small molecule antagonists of the estrogen related receptor signaling pathway with the pleiotropic PPARgamma coactivator (PGC) from Tox21 10K library - cell viability counter screen (AID 1224840; active = well fitted cell-killing curve with a large enough effect in the repeat runs, not every such curve was filed as active; inconclusive = weak or mixed curves, or effect the other way; inactive = no such curve, though single readings can be large or run the other way; note: potency is the fitted concentration of half-maximal effect; nearly all actives have a fitted effect of over 40% in size)
# Procedure, shortened: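 PGC/ERR cells (2,000/well) plated 6 h, then compound-treated for 17.5 h at 37 C. Viability measured by CellTiter-Fluor fluorescence after 30 min at 37 C, multiplexed with the pathway assay.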
# Tags give direction and shape of the fitted curve or compound fluorescence and quenching.
# UniProt P08659, sequence (P08659 whole entry, looked up): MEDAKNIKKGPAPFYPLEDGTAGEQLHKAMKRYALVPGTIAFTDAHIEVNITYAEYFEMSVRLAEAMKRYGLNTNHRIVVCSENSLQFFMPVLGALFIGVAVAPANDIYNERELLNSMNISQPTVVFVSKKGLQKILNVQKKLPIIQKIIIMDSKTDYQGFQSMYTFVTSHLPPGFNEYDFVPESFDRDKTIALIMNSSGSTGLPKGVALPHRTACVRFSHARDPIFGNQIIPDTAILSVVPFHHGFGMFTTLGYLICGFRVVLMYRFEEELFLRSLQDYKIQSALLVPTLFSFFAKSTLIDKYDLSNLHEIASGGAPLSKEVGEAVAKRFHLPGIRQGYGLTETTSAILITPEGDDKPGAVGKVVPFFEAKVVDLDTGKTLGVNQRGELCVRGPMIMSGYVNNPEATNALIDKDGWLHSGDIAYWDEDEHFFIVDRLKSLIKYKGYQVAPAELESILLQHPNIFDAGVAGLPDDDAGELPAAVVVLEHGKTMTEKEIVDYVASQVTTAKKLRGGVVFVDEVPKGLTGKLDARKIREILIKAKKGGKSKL
# UniProt P10275, sequence (P10275 whole entry, looked up): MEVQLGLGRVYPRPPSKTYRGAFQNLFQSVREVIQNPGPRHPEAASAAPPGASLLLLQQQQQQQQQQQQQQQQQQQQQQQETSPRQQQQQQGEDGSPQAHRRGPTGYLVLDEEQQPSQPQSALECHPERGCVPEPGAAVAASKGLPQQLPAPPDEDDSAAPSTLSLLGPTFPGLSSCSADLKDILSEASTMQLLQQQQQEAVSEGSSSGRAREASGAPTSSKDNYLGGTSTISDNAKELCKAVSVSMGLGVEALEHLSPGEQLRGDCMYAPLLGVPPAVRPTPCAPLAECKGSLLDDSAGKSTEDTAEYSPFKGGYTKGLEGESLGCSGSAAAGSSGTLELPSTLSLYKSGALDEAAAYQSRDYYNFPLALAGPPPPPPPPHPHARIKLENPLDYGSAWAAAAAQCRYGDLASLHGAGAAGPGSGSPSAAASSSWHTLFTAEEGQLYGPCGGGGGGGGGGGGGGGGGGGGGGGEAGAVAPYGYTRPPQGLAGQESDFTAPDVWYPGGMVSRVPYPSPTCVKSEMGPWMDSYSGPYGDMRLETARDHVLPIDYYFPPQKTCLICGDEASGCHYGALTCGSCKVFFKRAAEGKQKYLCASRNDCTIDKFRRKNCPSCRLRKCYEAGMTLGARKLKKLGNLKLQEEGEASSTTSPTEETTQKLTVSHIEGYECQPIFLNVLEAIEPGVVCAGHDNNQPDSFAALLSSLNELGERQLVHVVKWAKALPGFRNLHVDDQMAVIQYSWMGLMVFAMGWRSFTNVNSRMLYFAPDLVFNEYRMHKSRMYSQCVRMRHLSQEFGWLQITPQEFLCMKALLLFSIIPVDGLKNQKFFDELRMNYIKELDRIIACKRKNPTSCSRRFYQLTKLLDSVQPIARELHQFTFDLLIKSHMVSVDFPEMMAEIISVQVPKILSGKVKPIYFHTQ
# UniProt Q03181, sequence (Q03181 whole entry, looked up): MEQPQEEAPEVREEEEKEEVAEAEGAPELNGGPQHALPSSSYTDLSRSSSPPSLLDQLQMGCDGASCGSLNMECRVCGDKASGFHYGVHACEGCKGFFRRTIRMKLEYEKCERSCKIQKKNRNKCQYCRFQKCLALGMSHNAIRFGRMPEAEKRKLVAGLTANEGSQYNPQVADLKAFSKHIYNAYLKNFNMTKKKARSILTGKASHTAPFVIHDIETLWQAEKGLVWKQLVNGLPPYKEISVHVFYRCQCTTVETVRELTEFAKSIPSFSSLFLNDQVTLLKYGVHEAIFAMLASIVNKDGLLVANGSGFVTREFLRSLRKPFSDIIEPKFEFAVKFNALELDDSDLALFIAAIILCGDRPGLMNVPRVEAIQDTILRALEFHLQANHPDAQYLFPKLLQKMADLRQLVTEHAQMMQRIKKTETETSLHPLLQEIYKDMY
# UniProt Q12809, sequence (Q12809 whole entry, looked up): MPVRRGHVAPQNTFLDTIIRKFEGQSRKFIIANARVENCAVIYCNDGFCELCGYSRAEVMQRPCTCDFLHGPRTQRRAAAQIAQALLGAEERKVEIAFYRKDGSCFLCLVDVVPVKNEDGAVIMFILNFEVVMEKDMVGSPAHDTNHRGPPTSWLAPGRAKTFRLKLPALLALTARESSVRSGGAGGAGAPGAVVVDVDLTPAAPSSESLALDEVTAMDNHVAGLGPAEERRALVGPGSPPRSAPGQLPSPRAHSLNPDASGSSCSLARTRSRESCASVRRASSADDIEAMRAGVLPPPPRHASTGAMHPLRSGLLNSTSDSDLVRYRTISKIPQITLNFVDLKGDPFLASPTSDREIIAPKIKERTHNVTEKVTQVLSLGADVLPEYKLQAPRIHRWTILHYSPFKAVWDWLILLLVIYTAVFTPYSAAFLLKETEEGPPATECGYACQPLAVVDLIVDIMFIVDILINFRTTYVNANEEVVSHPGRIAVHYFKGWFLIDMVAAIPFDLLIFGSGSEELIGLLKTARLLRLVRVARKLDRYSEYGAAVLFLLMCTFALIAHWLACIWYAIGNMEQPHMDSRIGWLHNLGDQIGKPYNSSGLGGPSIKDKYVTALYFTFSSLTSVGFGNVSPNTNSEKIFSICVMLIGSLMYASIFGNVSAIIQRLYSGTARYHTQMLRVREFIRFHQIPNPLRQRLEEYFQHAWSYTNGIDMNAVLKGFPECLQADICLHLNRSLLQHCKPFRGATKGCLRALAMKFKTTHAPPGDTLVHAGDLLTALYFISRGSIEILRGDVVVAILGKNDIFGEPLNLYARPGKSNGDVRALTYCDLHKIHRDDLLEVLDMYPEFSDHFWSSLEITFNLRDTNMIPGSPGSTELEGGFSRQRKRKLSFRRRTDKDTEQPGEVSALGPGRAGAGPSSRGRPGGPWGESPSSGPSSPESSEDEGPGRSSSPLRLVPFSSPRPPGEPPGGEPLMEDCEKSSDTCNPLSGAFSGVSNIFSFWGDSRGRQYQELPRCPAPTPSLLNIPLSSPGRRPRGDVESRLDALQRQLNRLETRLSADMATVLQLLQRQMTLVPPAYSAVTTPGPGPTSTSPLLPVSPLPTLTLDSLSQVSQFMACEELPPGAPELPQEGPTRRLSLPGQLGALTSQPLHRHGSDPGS
# UniProt P22303, sequence (P22303 whole entry, looked up): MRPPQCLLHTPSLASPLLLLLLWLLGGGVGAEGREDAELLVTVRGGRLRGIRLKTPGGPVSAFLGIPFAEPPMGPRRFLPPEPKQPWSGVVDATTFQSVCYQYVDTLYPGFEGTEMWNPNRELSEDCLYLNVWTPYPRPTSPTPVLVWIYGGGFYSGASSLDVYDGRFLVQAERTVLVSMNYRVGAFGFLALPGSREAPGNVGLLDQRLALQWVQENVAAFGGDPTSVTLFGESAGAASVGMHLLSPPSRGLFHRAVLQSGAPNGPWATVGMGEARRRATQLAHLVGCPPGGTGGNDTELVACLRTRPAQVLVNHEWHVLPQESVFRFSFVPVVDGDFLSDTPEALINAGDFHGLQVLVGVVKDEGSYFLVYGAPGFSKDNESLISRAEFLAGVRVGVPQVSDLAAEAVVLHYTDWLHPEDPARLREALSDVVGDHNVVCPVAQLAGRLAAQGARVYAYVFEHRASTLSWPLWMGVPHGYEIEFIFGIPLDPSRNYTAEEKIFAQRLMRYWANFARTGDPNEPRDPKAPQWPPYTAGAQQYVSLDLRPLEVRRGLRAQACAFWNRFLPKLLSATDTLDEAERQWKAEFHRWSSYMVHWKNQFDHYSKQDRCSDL
# UniProt Q14994, sequence (Q14994 whole entry, looked up): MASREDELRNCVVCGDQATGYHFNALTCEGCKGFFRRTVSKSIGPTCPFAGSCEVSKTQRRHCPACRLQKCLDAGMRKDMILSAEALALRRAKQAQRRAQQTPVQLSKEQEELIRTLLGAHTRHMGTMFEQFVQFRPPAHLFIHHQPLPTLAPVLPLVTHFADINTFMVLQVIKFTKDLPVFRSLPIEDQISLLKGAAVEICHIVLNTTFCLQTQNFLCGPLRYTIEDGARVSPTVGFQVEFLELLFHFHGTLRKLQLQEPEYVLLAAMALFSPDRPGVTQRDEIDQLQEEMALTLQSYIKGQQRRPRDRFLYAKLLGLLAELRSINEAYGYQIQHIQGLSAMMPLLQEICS
# UniProt P03372, sequence (P03372 whole entry, looked up): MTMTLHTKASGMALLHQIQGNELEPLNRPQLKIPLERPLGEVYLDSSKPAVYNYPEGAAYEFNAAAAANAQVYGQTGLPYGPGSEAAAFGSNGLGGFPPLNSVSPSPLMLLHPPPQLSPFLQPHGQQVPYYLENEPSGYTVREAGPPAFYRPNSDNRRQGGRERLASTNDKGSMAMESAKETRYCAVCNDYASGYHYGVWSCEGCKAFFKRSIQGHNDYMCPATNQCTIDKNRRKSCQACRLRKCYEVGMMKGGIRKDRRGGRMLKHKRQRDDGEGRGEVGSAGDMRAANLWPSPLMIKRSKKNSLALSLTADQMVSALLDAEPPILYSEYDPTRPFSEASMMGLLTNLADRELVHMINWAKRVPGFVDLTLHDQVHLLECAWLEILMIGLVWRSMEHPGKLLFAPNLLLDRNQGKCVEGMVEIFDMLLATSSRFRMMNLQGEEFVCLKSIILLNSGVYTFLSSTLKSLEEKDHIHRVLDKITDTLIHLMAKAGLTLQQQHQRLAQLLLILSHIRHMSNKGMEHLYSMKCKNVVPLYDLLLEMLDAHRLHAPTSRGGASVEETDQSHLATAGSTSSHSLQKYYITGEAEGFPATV
smiles,measurement,setting,value
CCOC(C(=O)OCCN(C)C)(c1ccccc1)c1ccccc1,Potency,[1],inactive
same,Potency,[2],inactive
C[C@]12CC[C@H]3[C@@H](CCC4=CC(=O)CC[C@@H]43)[C@@H]1CC[C@@H]2OC(=O)CCC1CCCCC1,Potency,[3],inactive
same,Potency,[4],"inconclusive: 0.473 µM [falling, full curve]"
same,Potency,[5],"inconclusive: 13.4 µM [inhibitor, partial curve]"
CCOP(=S)(OCC)Oc1cc(-c2ccccc2)on1,Potency,[1],active: 31.7 µM
same,Potency,[6],inactive
same,Potency,[3],"inconclusive: 54.9 µM [cytotoxic, single point]"
Nc1ccc(Cc2ccc(N)cc2)cc1,Potency,[7],"inconclusive: 67.5 µM [inhibitor, single point]"
same,Potency,[8],"inconclusive: 48.2 µM [rising, partial curve, poor fit]"
COc1ccc2c(C(=O)c3ccc(Cl)cc3)c(C)n(CC(=O)O)c2c1,Potency,[9],"inconclusive: 11.9 µM [inhibitor, partial curve, poor fit]"
same,Potency,[10],inactive
same,Potency,[11],"inconclusive: 0.389 µM [inhibitor, single point]"
COP(=S)(OC)Oc1c(Cl)cc(C)cc1Cl,Potency,[1],"inconclusive: 56.4 µM [inhibitor, partial curve]"
same,Potency,[5],inactive
COc1ccc2c(c1OC)C(=O)O[C@H]2[C@@H]1c2cc3c(cc2CCN1C)OCO3,Potency,[12],inactive
same,Potency,[13],"inconclusive: 8.41 µM [cytotoxic, partial curve]"
same,Potency,[11],"inconclusive: 13.8 µM [inhibitor, partial curve, poor fit]"
same,Potency,[5],"inconclusive: 21.3 µM [inhibitor, partial curve]"
CCCCOC(=O)c1ccccc1C(=O)O,Potency,[8],inactive
CNC(=O)Oc1cccc(N=CN(C)C)c1,Potency,[7],"inconclusive: 61.1 µM [inhibitor, single point]"
same,Potency,[14],inactive
same,Potency,[2],"inconclusive: 68.6 µM [cytotoxic, single point]"
O=c1[nH]c2ccccc2c(=O)o1,Potency,[1],"inconclusive: 56.4 µM [inhibitor, partial curve, poor fit]"
same,Potency,[15],"inconclusive: 62.6 µM [activator, partial curve, poor fit]"
CCOC(=O)C(c1c(O)c2ccccc2oc1=O)c1c(O)c2ccccc2oc1=O,Potency,[1],"inconclusive: 38.9 µM [inhibitor, partial curve, poor fit]"
same,Potency,[9],"inconclusive: 2.98 µM [inhibitor, single point]"
CC(C)(C)OC(=O)c1ncn2c1[C@@H]1CCCN1C(=O)c1c(Br)cccc1-2,Potency,[2],"inconclusive: 0.668 µM [cytotoxic, partial curve, poor fit]"
same,Potency,[10],"inconclusive: 9.52 µM [rising, partial curve, poor fit]"
[As]#[In],Potency,[16],"inconclusive: 49 µM [rising, partial curve, poor fit]"
same,Potency,[15],"inconclusive: 0.49 µM [activator, single point]"
same,Potency,[13],inactive
COc1ccc2c(c1OC)CN1CCc3cc4c(cc3C1C2)OCO4 (stereo unspecified),"activity change, negative = inhibition",[12],inconclusive: -0.712% [at 27 µM]
same,Potency,[7],"inconclusive: 12.7 µM [inhibitor, partial curve, poor fit]"
same,Potency,[16],"inconclusive: 7.56 µM [cytotoxic, partial curve]"
same,Potency,[3],inactive
same,Potency,[13],"inconclusive: 23.7 µM [cytotoxic, partial curve, poor fit]"
same,Potency,[5],"inconclusive: 21.3 µM [inhibitor, partial curve, poor fit]"
Fc1ccc(C2(Cn3cncn3)OC2c2ccccc2Cl)cc1 (stereo unspecified),Potency,[17],inactive
same,Potency,[18],inactive
same,Potency,[14],inconclusive: 19.5 µM [cytotoxic]
same,Potency,[19],inconclusive: 68.6 µM [cytotoxic]
same,Potency,[15],"inconclusive: 43.6 µM [activator, single point]"
same,Potency,[3],"inconclusive: 49 µM [cytotoxic, partial curve]"
Nc1cccc(Cl)c1,Potency,[8],inactive
same,Potency,[16],active: 21.9 µM
Cc1nc2ccccc2c(=O)n1-c1ccccc1Cl,Potency,[18],"inconclusive: 47.5 µM [cytotoxic, partial curve]"
same,Potency,[19],"inconclusive: 37.7 µM [cytotoxic, partial curve, poor fit]"
same,Potency,[13],"inconclusive: 67.1 µM [cytotoxic, partial curve, poor fit]"
CN(C)NC(=O)CCC(=O)O,max response,[16],inactive: 2.52% and inactive: 2.58%
ClCc1cccnc1,Potency,[17],"inconclusive: 3.41 µM [falling, full curve]"
C=C(C)[C@@H]1CC=C(C=O)CC1,Potency,[11],inactive
CCNc1nc(Cl)nc(NC(C)(C)C)n1,"activity change, negative = inhibition",[12],inconclusive: -35%
same,Potency,[18],inactive
COC(=O)c1ccc(CBr)cc1,Potency,[12],inactive
same,Potency,[7],inactive
CCOP(=S)(OCC)Oc1nc(Cl)n(C(C)C)n1,Potency,[14],inactive
same,Potency,[1],"inconclusive: 89.4 µM [inhibitor, partial curve, poor fit]"
same,Potency,[6],inactive
same,Potency,[4],"inconclusive: 61.1 µM [rising, single point]"
CCCCc1c(C)nc(NCC)nc1OS(=O)(=O)N(C)C,Potency,[7],"inconclusive: 54.5 µM [inhibitor, partial curve]"
same,Potency,[18],inconclusive: 54.5 µM [cytotoxic]
same,Potency,[19],"inconclusive: 30.6 µM [cytotoxic, partial curve]"
same,Potency,[3],active: 9.77 µM
same,Potency,[11],inactive
same,Potency,[5],"inconclusive: 49 µM [inhibitor, single point]"
